Results are given in words; binding and its absence hold for the method and conditions named. Some entries that bind do so weakly or less than the wild type.

The chains behind the UniProt entries cited, without tags or fusion partners. Where a name states a change or a piece, a line headed by the entry shows the natural chain unless it says otherwise. A line that says so, or that is headed by a name, gives the form on record, which may keep a tag or linker. Residues count along the entry.
Trim5α from Rhesus macaque, Bbox coiled-coil regions, residues 88–296 with the E120K/R121D mutation (Q0PF16, form named): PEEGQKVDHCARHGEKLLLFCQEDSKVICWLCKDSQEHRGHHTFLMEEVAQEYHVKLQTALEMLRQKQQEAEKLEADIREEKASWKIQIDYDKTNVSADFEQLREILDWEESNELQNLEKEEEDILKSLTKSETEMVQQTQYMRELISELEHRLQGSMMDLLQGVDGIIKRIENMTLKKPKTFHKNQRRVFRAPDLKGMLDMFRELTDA
W196A RhT5 88–296 EK/RD (Q0PF16, form named): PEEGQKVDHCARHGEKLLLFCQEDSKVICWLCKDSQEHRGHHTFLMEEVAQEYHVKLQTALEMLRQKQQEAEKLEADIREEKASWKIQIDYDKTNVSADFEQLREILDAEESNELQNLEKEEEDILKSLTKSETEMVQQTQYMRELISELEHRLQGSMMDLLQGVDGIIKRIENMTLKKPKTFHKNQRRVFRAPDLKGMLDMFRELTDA
UniProt O95166: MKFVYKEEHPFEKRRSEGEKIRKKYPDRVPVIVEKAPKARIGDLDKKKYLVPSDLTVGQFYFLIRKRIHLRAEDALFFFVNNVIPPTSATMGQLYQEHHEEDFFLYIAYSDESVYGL
UniProt P60520: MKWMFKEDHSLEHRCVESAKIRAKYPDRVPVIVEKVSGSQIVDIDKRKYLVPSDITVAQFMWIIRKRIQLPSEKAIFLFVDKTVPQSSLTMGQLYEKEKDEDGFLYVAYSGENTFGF
UniProt Q9BXW4, residues 1-126: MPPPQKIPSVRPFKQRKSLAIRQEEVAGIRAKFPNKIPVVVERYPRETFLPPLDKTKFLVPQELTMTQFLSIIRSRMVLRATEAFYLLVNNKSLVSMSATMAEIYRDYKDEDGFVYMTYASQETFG

The source of these data is paper PMC6254359.

Experiment [1] addresses Trim5α from Rhesus macaque, Bbox coiled-coil regions, residues 88–296 with the E120K/R121D mutation (Rhesus macaque) (UniProt Q0PF16). Description: AUC; sedimentation velocity, c(s) analysis of equimolar mixtures, 20 μM each; 20 °C, 50,000 rpm; 10 mM Tris/HCl pH 8, 150 mM NaCl, 0.1 mM TCEP; shift of the fast-moving peak; both purified.
Experiment [2] addresses W196A RhT5 88–296 EK/RD (Rhesus macaque) (UniProt Q0PF16). Described as above.

In the case of GABARAP (from UniProt O95166 1-117), the binding entry in experiment [1] and in experiment [2] was “binds” throughout.

Take GABARAPL2 (from UniProt P60520 1-117): the results for the binding entry in experiment [1] and in experiment [2] were “binds” and “no binding (tested: 20 μM each)”, respectively.

LC3C (from UniProt Q9BXW4 1-126): the binding result was “binds” in experiment [1] and “no binding (tested: 20 μM each)” in experiment [2].

In the case of LC3A (from UniProt Q9H492 1-121), the values for the binding result in experiment [1] and in experiment [2] were “binds” and “no binding (tested: 20 μM each)”, respectively.
